B1: LINE1-mini (parent)
chain: GGCAGAGCUCAACACAGCGUGGCAAAGUGGCUGUGGCUAGACUGCC

Read counts are not given, so values of variants with three or more changes are uncertain.

Variants of B1 are the subject of the data set. Description: self-cleavage, relative activity (ratio to wild type); higher = more cleavage; in vitro, sequencing; the parent is a self-cleaving ribozyme.
As for GGCAGAGCUCAACACAGCGUCGCAAAGUGGCUGUGGCUUAACUGCC, the self-cleavage is 0.07.

For the variant GUCAGAGCUCAACACAGCGUGGCAAAGUGGCUGUGGCUAGACAACC, the self-cleavage came out at 0.05.

For GUCAGAGCUCAAUACAGCGUGGCAAAGUGGCUGUGGUUAGACUGCC, the self-cleavage amounted to 0.07.

Consider GGCAGAGCUCGACACACCGUGGCAAAGUGGCUGUGGCUAGACUGCG, for which the self-cleavage stood at 0.01.

Take AGCAGAGGUCAACACAGUGUGGAAAAGUCGCUGUGGCUAGACUGCC: the self-cleavage turned out to be 0.03.

For the variant UGCAGAGCUCAACACAGCGCGACAAAGUGGCUGUGGCUAGACAGCC, the self-cleavage was 0.03.

For GGCAGAGCUCAACACGGAGGGGCAAAGUGGCUGUGGCUAGACUGCC, the self-cleavage came to 0.06.

Consider GGAAUAGCUCAACACAGCGUGGCAAAGUGGCUGUCGCUAGAUUGCC, for which the self-cleavage worked out at 0.18.

In the case of GGCAGAGCUCAAGACAGCGUAGCAAAGUGCCUGUGGCUAGACUGCC, the self-cleavage came to 0.02.

AGCAGAGCUCAACAGACCGUGGCAAAGUGGCUGUGGCUAGUGUGCC: the self-cleavage was 0.03.

As to GGCAGAGCUCAACACAUCGUUGGAAAGUGGCUGUGGCUAGACUGCC, the self-cleavage came to 0.03.

Consider GGCCGAGCUGAACACAGCGGGGCAAAGUGGCUGUCGCUAGACUGCC, for which the self-cleavage was 0.02.

On to GUCAGAGCUCAAGACAGCGUGGCAAAGAGACAGUGGCUAGACUGCC, for which the self-cleavage worked out at 0.02.

As for GGAAGAGCUCAACACAACGUGGCAAAGUGGCAGUGGCUAGACUGCC, the self-cleavage turned out to be 0.1.

For the variant CACAGAGCUCAACACAUCGUGGCAAAGUGGCUGUGGCUAGACUGCC, the self-cleavage turned out to be 0.01.

GGCAUAGCACAACACAGCGUGGCAAAGUGGCUGUGGCUAUACUGCC: the self-cleavage is 0.18.

Turning to GGCAGAGCUCAACACAGCGUGGCAUAGUGGAUGUGGCUCGACCGCC, the self-cleavage was 0.14.

For GGCAGAGCUCAACACAGCGAAGCAAAGUGACUGUGGCUAGACUGUC, the self-cleavage was 2.02.

In the case of GGCACAGUUCAACACAGCGGGGCAAAGUCGCUGUGGCUAGACUGCC, the self-cleavage was found to be 0.04.

Regarding GGCAGAGCUAAACCCAGCGUGGCAAAGUUGCUGUGGCUACACUGCC, the self-cleavage stood at 0.01.

For GGCAGAGCUCAACACACCGUGGCACAGUCGCUGUGGGUAGACUGCC, the self-cleavage was found to be 0.02.

Turning to GACAGAGCUCAACAUAUCGUGGCAAAGUGGCUGUGGCUAGACUGCC, the self-cleavage was found to be 0.29.

On to GGCCGAGCUCAACACAGCGUGGAAAAGUGGCUGCGGCUAGACUGCC, for which the self-cleavage was 0.04.

GGCAGAGCUCAACACAGAGUGGCAAAGUGGCUGUAGCUAGUCUGCC: the self-cleavage worked out at 0.01.

On to GGCUGAGCUCAACACAGCGUGGCAAAGUGGCUGUGCCUAAACUGUC, for which the self-cleavage came out at 0.17.

In the case of GGCAGAGCCAAACAGAGCGUGGCAAAGUGGCUGUGGCUAGAGUGCC, the self-cleavage was 0.03.

With GGCAAAACUCAAGACAGCGUGGCAAAGUGGCUGUGGCUAGAGUGCC, the self-cleavage amounted to 0.16.

With GGCAGAGCUCUACACAGCGUUGCAAAAUGGCUGUGGCUUGACUGCC, the self-cleavage worked out at 0.

For GGCAGAUCUCAACACAGCGUGGAAAAGUGGCUCUGGCUAGACUGCC, the self-cleavage turned out to be 0.03.

As for GGCAGAGCUCAAUACAGAGUGGAAAAGUGGCUGUGGCUAGACUGCC, the self-cleavage was 0.14.

In the case of GGCAGAGCUUAACACAGCGUGGCAAAGUCGGUGUCGGUAGACUGCC, the self-cleavage turned out to be 0.01.

With ACCAGAGCACAACACAACGUGGCAAAGUCGCUGUGGCUAGACUGCC, the self-cleavage was found to be 0.1.

For GGUAGAGCUCAACACAGCGUGGCAAAGUGGCUUUGGUUAGACUGCC, the self-cleavage is 0.08.

As to GGCAGAGCACAACACGGCGUGGCAAAGUCGCUGUGGCUAUACUGCC, the self-cleavage amounted to 0.04.

Turning to GGCAGAGCUCAACACAGCGUGCCAAAGUGAAUGUGGCUAGACUGCC, the self-cleavage was determined as 0.1.

As for CGCACGGCUCAACACAGCGUGGCAAAGUGGCUGUGGCUAGACUGCC, the self-cleavage amounted to 0.04.

As to GGCAGAGCUCAUGACAACGUGGCAAAGUGGCUCUGGCUAAAAUGCC, the self-cleavage came to 0.01.

Take GGCAGAGCUCAAGACAGCGCGGCAAAGUCGCUGUGGCUCGAUUGAC: the self-cleavage amounted to 0.01.

Regarding GGCAGAGCUCAACACAAAGUGGCAAAGUGGCUGUGGCUAGACUACC, the self-cleavage is 0.05.

For the variant GGCAGCGCGCAACACAGCGUGGCAAAGUGGCUUUGGAUAGACUGCC, the self-cleavage came to 0.03.

With GGCAGUGCUCAACACAGCGUGGCAAAGUGGCUGUGGUUAGGCUUCC, the self-cleavage amounted to 1.04.

For the variant GGCAGACCUCAACACAGCGUGGCAAAGUGGUUGUGGGUAGGAUGCC, the self-cleavage was found to be 0.

For GGCAGAGCUAAAUACGGAGUGGCAAAGUGGCUGUGGCUAGACUGCC, the self-cleavage was 0.06.

For GGCAGAGUUCAAAAUAGCGUGGAAAAGUGGCUGUGGCUAGACUGCC, the self-cleavage turned out to be 0.17.

Turning to GGCAGCGCCCGACACAGCGUGGCAAAGUGGCUGUGGCUAGACUGGC, the self-cleavage is 0.01.

As for GGCAGAGCUCAACACAGCGUGUAAAAGUGGCUGUGACUAGACUGCC, the self-cleavage stood at 0.16.

GGCUCAGCUAAACAAAGCGUGGCAAAGUGGCUGUCGAUAGACUGCC: the self-cleavage stood at 0.01.

As to GGCAGAGCUCAACACAACGUGGCAAACUGGCUGUGCCUAGACUGGC, the self-cleavage was determined as 0.03.

With GGAAUAGCUCAACACAGCGUGGCAAAGUGGCUGUGUCUAGUCUGCC, the self-cleavage turned out to be 0.12.

Take AGCAGAGAUCAUCACAGCGUGCUAAAGUGGCUGUGGCCAGUAUGCC: the self-cleavage stood at 1.26.

GGCAGAGCUCAACACAGAGUGGAUAAGUGGCUGUGGCUAGACUGCC: the self-cleavage is 0.58.

In the case of GGGAGAGCUCAACACAGCGUGGCAAAGUGGCUGUGCCUGGACUGCU, the self-cleavage was found to be 0.23.

Consider GGCAGACCUCAGCACAGAGUGGCAAAGCGGCUGUGGCUAGACUACC, for which the self-cleavage amounted to 0.

As to GGCAGAGCUCAACACAGAGCGGCAAAGUGGCUGUGUAUAGACUGCC, the self-cleavage came out at 0.05.

For GGCAGAGCUCAACACAGCGUGGCAAAGUCGAUGUGACUAGACUGCG, the self-cleavage was 0.13.

Take GGCAGAGGUCAAUACAGUGUGGCAAAGUGGCUGUGUCUAGACUGCC: the self-cleavage worked out at 0.09.

The values above are taken from the RNAGym collection of RNA variant scans (doi:10.7554/elife.90254).
